# In all, about 410,000 compounds went through this assay and about 7,200 (1.8%) were called active. Inconclusive means that the source gave no clear call. Such entries were picked first, then a sample of the others. The call rests on the fitted dose curve; in most records, active means well fitted activation curve with a large enough effect; inconclusive means small, poorly fitted or top-dose-only effect, or another doubt; inactive means no such curve, though single readings can be large or run the other way. No potency is given beside an inconclusive call; the fits are too rough.
# Test: qHTS of TDP-43 Inhibitors; further: nearly all actives have a fitted effect of over 50% in size; on growth rescue (activation): % of control where 0% means no effect
# Details: TDP-43 expressing yeast growth rescue, BacTiter-Glo, 24 h; growth rescue (activation): at 46.1 µM (top of the series) unless noted
# How it was run: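 Yeast cells expressing TDP-43 under galactose induction are exposed to compounds for 24 hr at 30 deg C. BacTiter-Glo luminescence measures growth, so protective compounds score as activators.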
# Potency means the concentration at half of the fitted maximal effect; tags describe the fitted curve by direction and shape.
SMILES,Potency,growth rescue (activation)
CN(CC(=O)Nc1ccccc1Br)c1ncnc2sccc12,"inconclusive [activator, partial curve]",–
COc1ccccc1C(=O)NC1CCCCCCC1,active: 17.8 µM,–
COc1cc2c(cc1OC)-c1cc(NC3CCCCCC3)nc(=O)n1CC2,inactive,–
Cc1cc(C)n2c(NC3CCCC3)c(-c3cc4ccccc4o3)nc2n1,"inconclusive [activator, partial curve, poor fit]",–
COc1cc(OC)cc(C(=O)Nc2cc3nn(-c4ccccc4)nc3cc2Cl)c1,inactive,–
C=CCn1c(SCC(=O)Nc2ccc(C(=O)O)cc2)nc2scc(-c3ccccc3)c2c1=O,inactive,–
Cn1c(=O)c2c(SCc3ccccn3)nc(CC(C)(C)C)nc2n(C)c1=O,"inconclusive [activator, single point]",–
O=C(Nc1ccc2c(c1)OCCO2)C(C1CC1)n1c(=O)c(-c2cc3ccccc3[nH]2)nc2ccccc21 (configuration not stated),"inconclusive [activator, full curve]",–
Cc1c(C(=O)/C=C/N(C)C)nnn1-c1ccc(Cl)c(Cl)c1,–,inconclusive: -93.4% [activator]
CCOc1ccc(S(=O)(=O)N2CCC(C(=O)N3CCc4ccccc4C3)CC2)cc1,"inconclusive [activator, partial curve]",–
Cc1ccc(-c2onc(C)c2C)cc1S(=O)(=O)N1CCCCC1,active: 22.4 µM,–
Cc1ccc(CSC2=Nc3ccccc3C3=NC(CCC(=O)N4CCN(c5ccccc5)CC4)C(=O)N23)cc1 (configuration not stated),inactive,–
O=C(Cn1c(=O)n(-c2ccc(F)cc2)c(=O)c2sc3ccccc3c21)N1CCCC1,inactive,–
Cn1nc(C(=O)NCc2ccccc2)c2c1-c1ccccc1SC2,active: 20 µM,–
O=S(=O)(c1ccc(=S)[nH]c1)N1CCCCCC1,"inconclusive [activator, full curve]",–
Nc1ncnc2c1ncn2C1CCCO1 (configuration not stated),active: 35.5 µM,–
Cn1c(=O)c2c(nc(SCC(=O)Nc3ccc(OC(F)(F)F)cc3)n2Cc2cccc(C(F)(F)F)c2)n(C)c1=O,inactive,–
O=C(CSc1nnc(Cc2ccc(Cl)cc2)o1)Nc1ccccc1,"inconclusive [activator, partial curve]",–
Fc1ccc(NC(=S)Nc2cc(Cl)ccc2Cl)cc1,"inconclusive [activator, single point]",–
Cc1nc2c(cnn2-c2ccccc2Cl)c(=O)n1-c1ccc(C(C)C)cc1,"inconclusive [activator, single point]",–
Cc1ccc(S(=O)(=O)N2CCCN(S(=O)(=O)c3ccccc3Br)CC2)cc1,"inconclusive [activator, partial curve, poor fit]",–
CN(C)S(=O)(=O)N(CC(=O)NCCSCc1ccccc1Cl)c1ccccc1,"inconclusive [activator, partial curve]",–
CCN(CC)S(=O)(=O)c1ccc(Cl)c(C(=O)Oc2cccnc2)c1,"inconclusive [activator, single point]",–

SMILES,Potency,growth rescue (activation)
COc1cccc(-c2nc(SCC(=O)Nc3ccc4c(c3)OCO4)c(-c3ccccc3)[nH]2)c1,active: 22.4 µM,–
Cc1ccc(NC(=O)COC(=O)Cc2csc(-c3ccc(Cl)cc3)n2)cc1C,"inconclusive [activator, single point]",–
CCCc1noc(-c2ccc(N3CCCCC3)c([N+](=O)[O-])c2)n1,"inconclusive [activator, partial curve, poor fit]",–
CCc1ccc(N=c2c([N+](=O)[O-])nn(-c3ccc4c(c3)OCCO4)n2O)cc1,active: 20 µM,–
CC(=NNC(=O)Cn1ccc(C(F)(F)F)n1)c1ccc(-n2ccnc2)cc1,"inconclusive [activator, partial curve]",–
Cc1ccccc1NC(=O)N1CCCN(c2ccc(C#N)cn2)CC1,"inconclusive [activator, partial curve]",–
C(=C\c1ccccc1)/C=N/Nc1nc2ccccc2[nH]1,inactive,–
CC(NC(=O)CCOc1ccccc1)c1ccccc1 (configuration not stated),"inconclusive [activator, full curve, poor fit]",–
CCc1ccc(NS(=O)(=O)c2cccc3nsnc23)cc1,"inconclusive [activator, single point]",–
Cc1ccc(OC(=O)c2cc(-c3ccccc3)nc3ccc(C)cc23)cc1,"inconclusive [activator, full curve, poor fit]",–
CCc1cccc(NC(=O)Cn2cc3c(n2)CCCC3)c1,"inconclusive [activator, partial curve]",–
CC1(C(=O)NS(=O)(=O)c2ccccc2Cl)CCN1C(=O)C1(c2ccccc2)CCCC1 (configuration not stated),"inconclusive [activator, single point]",–
Cc1ccc(C(c2nnnn2CCc2ccccc2)N2CCSCC2)cc1 (configuration not stated),"inconclusive [activator, single point]",–
CCOc1ccc(CCNC(=O)CCCc2nnc3n(CC(C)C)c(=O)c4sccc4n23)cc1,inactive,–
Cc1cccc(NC(=O)c2cc(=O)c3ccccc3o2)n1,"inconclusive [activator, partial curve]",–
COc1ccc(OC)c(-c2cc(C(=O)N3CCCc4ccccc43)no2)c1,"inconclusive [activator, single point]",–
CCn1nc(C)cc1C(=O)Sc1cccc(Br)c1,"inconclusive [activator, single point]",–
CCOC(=O)Nc1ccc2c(CN3CCN(S(=O)(=O)c4ccccc4)CC3)cc(=O)oc2c1,"inconclusive [activator, full curve, poor fit]",–
CCS(=O)(=O)N1CCc2cc(C(=O)N3CCN(c4cccc(C(F)(F)F)c4)CC3)ccc21,"inconclusive [activator, single point]",–
Cn1cc(C(c2ccccc2OCC(=O)O)c2cn(C)c3ccccc23)c2ccccc21,"inconclusive [activator, single point]",–
CC1(C(=O)NS(=O)(=O)c2ccc(C#N)cc2)CCN1C(=O)CCc1ccc(Cl)cc1Cl (configuration not stated),"inconclusive [activator, single point]",–
COc1ccc2oc(=O)cc(CN3CCN(C(=O)c4ccccc4F)CC3)c2c1,inactive,–
Cc1[nH]nc2c1-c1nc3ccccc3nc1C(C)(C)C2,active: 22.4 µM,–

SMILES,Potency,growth rescue (activation)
O=[N+]([O-])c1ccc(-n2cc(-c3ccccc3)nn2)cc1,"inconclusive [activator, partial curve]",–
O=C(/C=C/c1ccccc1)NC(=S)NNC(=O)c1cnccn1,inactive,–
COc1ccc(N2CCN(C(=O)COC(=O)Cc3ccc(F)cc3)CC2)cc1,"inconclusive [activator, single point]",–
COc1cccc([C@@H]2CC=C(C(=O)O)[C@H](c3cccc(Cl)c3)N2S(=O)(=O)c2ccc(C)cc2)c1,"inconclusive [activator, single point]",–
CC(C)(C)C(=O)OCc1cn(-c2ccccc2)nn1,"inconclusive [activator, partial curve]",–
COc1c(C)cc(C(=O)C2CCCN(S(=O)(=O)c3c(C)noc3C)C2)cc1C (configuration not stated),"inconclusive [activator, partial curve]",–
COc1ccc(OCC(=O)Nc2cccc(NC(=O)c3ccco3)c2)cc1,"inconclusive [activator, partial curve]",–
N/C(=N\OC(=O)CCc1ccccc1)c1cccc(Br)c1,"inconclusive [activator, single point]",–
O=C1CCC(/C=C/c2ccccc2)=NN1Cc1ccc(F)cc1,"inconclusive [activator, single point]",–
C=CCn1c(SCC#N)nc2c(c1=O)C(C)(C)Cc1ccccc1-2,"inconclusive [activator, partial curve]",–
Cc1nn(C)c(C)c1CN(C)C(=O)C1(C)CC1(Br)Br (configuration not stated),"inconclusive [activator, partial curve]",–
Clc1ccc(-c2cc3ccccc3nc2N2CCOCC2)cc1,active: 17.8 µM,–
O=C(NCc1cccnc1)c1ccc(COc2ccccc2Cl)cc1,"inconclusive [activator, partial curve]",–
Cc1ccc(CNc2oc(-c3ccco3)nc2S(=O)(=O)c2ccccc2)cc1,"inconclusive [activator, partial curve]",–
CCCCn1c(SCc2nc(N)nc(Nc3ccccc3C)n2)nc2ccccc2c1=O,"inconclusive [activator, single point]",–
Cn1nnnc1SCc1cccc2ccccc12,"inconclusive [activator, partial curve, poor fit]",–
O=C(c1ccc2noc(-c3ccccc3)c2c1)N1CCN(c2ccccc2)CC1,"inconclusive [activator, partial curve]",–
C/C(=N/OC(=O)c1cccc(Cl)c1)c1nccs1,"inconclusive [activator, partial curve]",–
CCOc1c(Br)cc(C(N)=O)cc1OCc1ccccc1,inactive,–
Clc1ccccc1OCc1nc(-c2ccccn2)no1,"inconclusive [activator, partial curve]",–
CCCc1nnc(SCC(=O)Nc2ccc(C(=O)OCC)cc2)o1,"inconclusive [activator, partial curve]",–
